Results taken from patent US20200325212A1 (CITY OF HOPE, published 2020).

Target: T1, CD86-Fc (human CD86 extracellular domain fused to human IgG1) (human, UniProt P42081 24-247)
T1 construct: extracellular domain; Expressed in insect cells with a gp67 secretion signal; No linker between CD86 and IgG1 is described; also called recombinant human CD86-Fc; recombinant bivalent CD86-Fc; not shown: human IgG1, UniProt P01857
T1 sequence (looked up): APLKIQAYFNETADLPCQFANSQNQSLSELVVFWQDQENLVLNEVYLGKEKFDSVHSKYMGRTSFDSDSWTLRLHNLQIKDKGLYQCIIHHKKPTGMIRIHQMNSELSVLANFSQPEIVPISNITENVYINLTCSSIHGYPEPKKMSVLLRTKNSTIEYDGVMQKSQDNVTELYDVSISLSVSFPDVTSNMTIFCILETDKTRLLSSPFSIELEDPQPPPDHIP
Assay: analytical SEC (relative A230) of an equimolar mixture with CD86-Fc

B1: CTLA4-Fc variant E31S (Fc fusion)
chain: not shown
notes: Whole fusion (CTLA4 extracellular domain, MMP9 linker, IgG1 Fc) with E31S; also called E31S CTLA-4
  binding result: binds

B2: CTLA4-Fc variant E31A R33A (Fc fusion)
chain: MHVAQPAVVLASSRGIASFVCEYASPGKATAVAVTVLRQADSQVTEVCAATYMMGNELTFLDDSICTGTSSGNQVNLTIQGLRAMDTGLYICKVELMYPPPYYLGIGNGTQIYVIDPEPCPDSDGSRSGGTSGGGSVPLSLYSGSTSGSGKSSEGSGQ[skipping human IgG1 Fc and a few adjoining residues]
notes: Whole fusion (CTLA4 extracellular domain, MMP9 linker, IgG1 Fc) with E31A and R33A; also called E31A and R33A CTLA-4
  binding result: binds

B3: CTLA4-Fc variant E31S R33E T51H (Fc fusion)
chain: MHVAQPAVVLASSRGIASFVCEYASPGKATSVEVTVLRQADSQVTEVCAAHYMMGNELTFLDDSICTGTSSGNQVNLTIQGLRAMDTGLYICKVELMYPPPYYLGIGNGTQIYVIDPEPCPDSDGSRSGGTSGGGSVPLSLYSGSTSGSGKSSEGSGQ[skipping human IgG1 Fc and a few adjoining residues]
notes: Whole fusion (CTLA4 extracellular domain, MMP9 linker, IgG1 Fc) with E31S, R33E and T51H; also called E31S, R33E, T51H CTLA-4
  binding result: no binding
